{"source": "the supplement of paper PMC8728848", "experiment_in_all_cases": "glycan array binding signal (z-score within array); higher = stronger binding", "conditions_in_all_cases": "glycan notation: IUPAC condensed, linker removed", "key": {"[1]": {"target": "Fuc(a1-2)Gal(b1-4)GlcNAc(b1-3)Gal(b1-4)GlcNAc(b1-2)Man(a1-3)[Fuc(a1-2)Gal(b1-4)GlcNAc(b1-3)Gal(b1-4)GlcNAc(b1-2)Man(a1-6)]Man(b1-4)GlcNAc(b1-4)GlcNAc", "outline": "(§1)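 The binding signal is a Z-score computed within each array. Data were drawn from 3228 arrays in the Consortium for Functional Glycomics database, restricted to those with a known protein sequence. Scores were averaged over arrays of the same protein sequence at different concentrations or buffers, and over linkers, and negative values can be taken as non-binding.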"}, "[2]": {"target": "Fuc(a1-2)Gal(b1-4)GlcNAc(b1-3)Gal(b1-4)GlcNAc(b1-3)Gal(b1-4)GlcNAc", "outline": "as §1"}, "[3]": {"target": "Fuc(a1-2)Gal(b1-4)GlcNAc(b1-3)GalNAc", "outline": "as §1"}, "[4]": {"target": "Fuc(a1-2)Gal(b1-4)GlcNAc(b1-3)[Fuc(a1-2)Gal(b1-4)GlcNAc(b1-6)]GalNAc", "outline": "as §1"}, "[5]": {"target": "Fuc(a1-2)Gal(b1-4)GlcNAc(b1-3)[Fuc(a1-3)[Gal(b1-4)]GlcNAc(b1-6)]Gal(b1-4)Glc", "outline": "as §1"}, "[6]": {"target": "Fuc(a1-2)Gal(b1-4)GlcNAc(b1-6)GalNAc", "outline": "as §1"}, "[7]": {"target": "Fuc(a1-2)Gal(b1-4)GlcNAc6S", "outline": "as §1"}, "[8]": {"target": "Fuc(a1-2)Gal(b1-4)[Fuc(a1-3)]GlcNAc", "outline": "as §1"}, "[9]": {"target": "Fuc(a1-2)Gal(b1-4)[Fuc(a1-3)]GlcNAc(b1-2)Man(a1-3)[Fuc(a1-2)Gal(b1-4)[Fuc(a1-3)]GlcNAc(b1-2)Man(a1-6)]Man(b1-4)GlcNAc(b1-4)[Fuc(a1-6)]GlcNAc", "outline": "as §1"}, "[10]": {"target": "Fuc(a1-2)Gal(b1-4)[Fuc(a1-3)]GlcNAc(b1-2)[Fuc(a1-2)Gal(b1-4)[Fuc(a1-3)]GlcNAc(b1-4)]Man(a1-3)[Fuc(a1-2)Gal(b1-4)[Fuc(a1-3)]GlcNAc(b1-2)Man(a1-6)]Man(b1-4)GlcNAc(b1-4)GlcNAc", "outline": "as §1"}, "[11]": {"target": "Fuc(a1-2)Gal(b1-4)[Fuc(a1-3)]GlcNAc(b1-3)Gal(b1-4)[Fuc(a1-3)]GlcNAc", "outline": "as §1"}, "[12]": {"target": "Fuc(a1-2)Gal(b1-4)[Fuc(a1-3)]GlcNAc(b1-3)Gal(b1-4)[Fuc(a1-3)]GlcNAc(b1-3)Gal(b1-4)[Fuc(a1-3)]GlcNAc", "outline": "as §1"}, "[13]": {"target": "Fuc(a1-2)Gal(b1-4)[Fuc(a1-3)]GlcNAc(b1-3)GalNAc", "outline": "as §1"}, "[14]": {"target": "Fuc(a1-2)Gal(b1-4)[Fuc(a1-3)]GlcNAc(b1-3)[Neu5Ac(a2-6)Gal(b1-4)GlcNAc(b1-6)]Gal(b1-4)Glc", "outline": "as §1"}, "[15]": {"target": "Fuc(a1-2)Gal3S(b1-4)GlcNAc", "outline": "as §1"}, "[16]": {"target": "Fuc(a1-2)Gal6S(b1-3)GlcNAc", "outline": "as §1"}, "[17]": {"target": "Fuc(a1-2)Gal6S(b1-3)GlcNAc6S", "outline": "as §1"}, "Fuc(a1-2)Gal6S(b1-4)Glc": {"target": "Fuc(a1-2)Gal6S(b1-4)Glc", "outline": "as §1"}, "[18]": {"target": "Fuc(a1-2)Gal6S(b1-4)Glc6S", "outline": "as §1"}, "Fuc(a1-2)[Gal(a1-3)]Gal": {"target": "Fuc(a1-2)[Gal(a1-3)]Gal", "outline": "as §1"}, "[19]": {"target": "Fuc(a1-2)[Gal(a1-3)]Gal(b1-3)GalNAc", "outline": "as §1"}, "[20]": {"target": "Fuc(a1-2)[Gal(a1-3)]Gal(b1-3)GalNAc(b1-3)Gal(a1-4)Gal(b1-4)Glc", "outline": "as §1"}, "[21]": {"target": "Fuc(a1-2)[Gal(a1-3)]Gal(b1-3)GlcNAc", "outline": "as §1"}, "[22]": {"target": "Fuc(a1-2)[Gal(a1-3)]Gal(b1-3)GlcNAc(b1-2)Man(a1-3)[Fuc(a1-2)[Gal(a1-3)]Gal(b1-3)GlcNAc(b1-2)Man(a1-6)]Man(b1-4)GlcNAc(b1-4)GlcNAc", "outline": "as §1"}, "[23]": {"target": "Fuc(a1-2)[Gal(a1-3)]Gal(b1-3)GlcNAc(b1-2)Man(a1-3)[Fuc(a1-2)[Gal(a1-3)]Gal(b1-3)GlcNAc(b1-2)Man(a1-6)]Man(b1-4)GlcNAc(b1-4)[Fuc(a1-6)]GlcNAc", "outline": "as §1"}, "[24]": {"target": "Fuc(a1-2)[Gal(a1-3)]Gal(b1-3)GlcNAc(b1-3)GalNAc", "outline": "as §1"}, "[25]": {"target": "Fuc(a1-2)[Gal(a1-3)]Gal(b1-3)GlcNAc(b1-6)GalNAc", "outline": "as §1"}, "[26]": {"target": "Fuc(a1-2)[Gal(a1-3)]Gal(b1-4)Glc", "outline": "as §1"}, "[27]": {"target": "Fuc(a1-2)[Gal(a1-3)]Gal(b1-4)GlcNAc", "outline": "as §1"}, "[28]": {"target": "Fuc(a1-2)[Gal(a1-3)]Gal(b1-4)GlcNAc(b1-2)Man", "outline": "as §1"}}, "note": "The list shows a part of the results."}
{"binder": "SGC, Q9M345 (protein) QNLNFTYNGFHPPLTDISLQGLATVTPNGLLKLTNTSVQKTGHAFCTERIRFKDSQNGNVSSFSTTFVFAIHSQIPTLSGHGIAFVVAPTLGLPFALPSQYIGLFNISNNGNDTNHIFAVEFDTIQSSEFGDPNDNHVGIDLNGLRSANYSTAGYRDDHDKFQNLSLISRKRIQVWIDYDNRSHRIDVTVAPFDSDKPRKPLVSYVRDLSSILLEDMYVGFSSATGSVLSEHFLVGWSFRLNGEAPMLSLSKLPKLPRFEPRRIS", "values": [{"measurement": "glycan array binding signal (z-score)", "setting": "[1]", "result": -0.263}, {"measurement": "glycan array binding signal (z-score)", "setting": "[2]", "result": -0.315}, {"measurement": "glycan array binding signal (z-score)", "setting": "[3]", "result": -0.371}, {"measurement": "glycan array binding signal (z-score)", "setting": "[4]", "result": -0.32}, {"measurement": "glycan array binding signal (z-score)", "setting": "[5]", "result": -0.34}, {"measurement": "glycan array binding signal (z-score)", "setting": "[6]", "result": 1.67}, {"measurement": "glycan array binding signal (z-score)", "setting": "[7]", "result": -0.391}, {"measurement": "glycan array binding signal (z-score)", "setting": "[8]", "result": -0.368}, {"measurement": "glycan array binding signal (z-score)", "setting": "[9]", "result": -0.092}, {"measurement": "glycan array binding signal (z-score)", "setting": "[10]", "result": -0.12}, {"measurement": "glycan array binding signal (z-score)", "setting": "[11]", "result": -0.418}, {"measurement": "glycan array binding signal (z-score)", "setting": "[12]", "result": -0.332}, {"measurement": "glycan array binding signal (z-score)", "setting": "[13]", "result": 1.8}, {"measurement": "glycan array binding signal (z-score)", "setting": "[14]", "result": -0.398}, {"measurement": "glycan array binding signal (z-score)", "setting": "[15]", "result": -0.335}, {"measurement": "glycan array binding signal (z-score)", "setting": "[16]", "result": -0.361}, {"measurement": "glycan array binding signal (z-score)", "setting": "[17]", "result": -0.367}, {"measurement": "glycan array binding signal (z-score)", "setting": "Fuc(a1-2)Gal6S(b1-4)Glc", "result": -0.377}, {"measurement": "glycan array binding signal (z-score)", "setting": "[18]", "result": -0.354}, {"measurement": "glycan array binding signal (z-score)", "setting": "Fuc(a1-2)[Gal(a1-3)]Gal", "result": -0.362}, {"measurement": "glycan array binding signal (z-score)", "setting": "[19]", "result": -0.322}, {"measurement": "glycan array binding signal (z-score)", "setting": "[20]", "result": -0.505}, {"measurement": "glycan array binding signal (z-score)", "setting": "[21]", "result": -0.354}, {"measurement": "glycan array binding signal (z-score)", "setting": "[22]", "result": 0.013}, {"measurement": "glycan array binding signal (z-score)", "setting": "[23]", "result": -0.4}, {"measurement": "glycan array binding signal (z-score)", "setting": "[24]", "result": -0.365}, {"measurement": "glycan array binding signal (z-score)", "setting": "[25]", "result": -0.396}, {"measurement": "glycan array binding signal (z-score)", "setting": "[26]", "result": -0.355}, {"measurement": "glycan array binding signal (z-score)", "setting": "[27]", "result": -0.374}, {"measurement": "glycan array binding signal (z-score)", "setting": "[28]", "result": -0.352}]}
